Data from US20110033389A1 (published 2011).

B1: AC8scFvTAT2C (scFv)
scFv: [sequence of about 100 residues omitted]GGSSRSSSSGGGGSGGGGQVQLVQSGAEVKKPGSSVKVSCKASGGSFSSYAINWVRQAPGQGLEWMGGLMPIFGTTNYAQKFQDRLTITADVSTSTAYMQLSGLTYEDTAMYYCARVAYMLEPTVTAGGLDVWGQGTTVTVSSASTKGGQAGQHHHHHHGAYPYDVPDYASGGRKRRREKRRR
B2: AC8scFvTAT2A (scFv)
scFv: [sequence of about 100 residues omitted]GGSSRSSSSGGGGSGGGGQVQLVQSGAEVKKPGSSVKVSCKASGGSFSSYAINWVRQAPGQGLEWMGGLMPIFGTTNYAQKFQDRLTITADVSTSTAYMQLSGLTYEDTAMYYCARVAYMLEPTVTAGGLDVWGQGTTVTVSSASTKGGQAGQHHHHHHGAYPYDVPDYASGGKKRKKEKKKR
B3: AC8scFv (scFv)
scFv: [sequence of about 100 residues omitted]GGSSRSSSSGGGGSGGGGQVQLVQSGAEVKKPGSSVKVSCKASGGSFSSYAINWVRQAPGQGLEWMGGLMPIFGTTNYAQKFQDRLTITADVSTSTAYMQLSGLTYEDTAMYYCARVAYMLEPTVTAGGLDVWGQGTTVTVSSASTKGGQAGQHHHHHHGAYPYDVPDYAS
B4: AC8scFvTAT (scFv)
scFv: [sequence of about 100 residues omitted]GGSSRSSSSGGGGSGGGGQVQLVQSGAEVKKPGSSVKVSCKASGGSFSSYAINWVRQAPGQGLEWMGGLMPIFGTTNYAQKFQDRLTITADVSTSTAYMQLSGLTYEDTAMYYCARVAYMLEPTVTAGGLDVWGQGTTVTVSSASTKGGQAGQHHHHHHGAYPYDVPDYASRGRKKRRQRRR
B5: AC8scFvTAT1A (scFv)
scFv: [sequence of about 100 residues omitted]GGSSRSSSSGGGGSGGGGQVQLVQSGAEVKKPGSSVKVSCKASGGSFSSYAINWVRQAPGQGLEWMGGLMPIFGTTNYAQKFQDRLTITADVSTSTAYMQLSGLTYEDTAMYYCARVAYMLEPTVTAGGLDVWGQGTTVTVSSASTKGGQAGQHHHHHHGAYPYDVPDYASGGRRKRRQRRRR
B6: AC8scFvTAT1B (scFv)
scFv: [sequence of about 100 residues omitted]GGSSRSSSSGGGGSGGGGQVQLVQSGAEVKKPGSSVKVSCKASGGSFSSYAINWVRQAPGQGLEWMGGLMPIFGTTNYAQKFQDRLTITADVSTSTAYMQLSGLTYEDTAMYYCARVAYMLEPTVTAGGLDVWGQGTTVTVSSASTKGGQAGQHHHHHHGAYPYDVPDYASGGRKKRKQKKR
B7: AC8scFvTAT1C (scFv)
scFv: [sequence of about 100 residues omitted]GGSSRSSSSGGGGSGGGGQVQLVQSGAEVKKPGSSVKVSCKASGGSFSSYAINWVRQAPGQGLEWMGGLMPIFGTTNYAQKFQDRLTITADVSTSTAYMQLSGLTYEDTAMYYCARVAYMLEPTVTAGGLDVWGQGTTVTVSSASTKGGQAGQHHHHHHGAYPYDVPDYASGGKRRKRQRRR

What follows are binders tested against T1, glycoprotein D of Herpes simplex virus, on HSV-1 virus (Herpes simplex virus (HSV-1 virus in …)) (assay: cell-based or functional assay).

Binder	ED50; plaque reduction assay, HSV-1 neutralization in solution [µg/mL]	ED50 against HSV-1 infection; virus prevention assay (cells pre-treated with antibody, washed, then HSV-1) [µg/mL]
B1	~0.2	25
B2	~0.2	3
B3	~0.2	

Molecular target: T1, glycoprotein D of Herpes simplex virus, …
Experiment: cell-based or functional assay
Remark: another data set of the same source

Binder	Plaque Reduction Rate Percentage (Average plaque number per plate) at 0.2 µg/ml; virus prevention assay (cells pre-treated with antibody, washed, then HSV-1) [%]	Plaque Reduction Rate Percentage (Average plaque number per plate) at 0.6 µg/ml; virus prevention assay (cells pre-treated with antibody, washed, then HSV-1) [%]	Plaque Reduction Rate Percentage (Average plaque number per plate) at 1.9 µg/ml; virus prevention assay (cells pre-treated with antibody, washed, then HSV-1) [%]	Plaque Reduction Rate Percentage (Average plaque number per plate) at 5.6 µg/ml; virus prevention assay (cells pre-treated with antibody, washed, then HSV-1) [%]	Plaque Reduction Rate Percentage (Average plaque number per plate) at 16.7 µg/ml; virus prevention assay (cells pre-treated with antibody, washed, then HSV-1) [%]	Plaque Reduction Rate Percentage (Average plaque number per plate) at 50 µg/ml; virus prevention assay (cells pre-treated with antibody, washed, then HSV-1) [%]
B1	0	0	5	21	36	76
B2	4	9	37	69	95	98
B4	0	0	20	41	91	97

Molecular target: T1, glycoprotein D of Herpes simplex virus, …
Experiment: cell-based or functional assay
Remark: another data set of the same source

Binder	Plaque Reduction Rate Percentage (Average plaque number per plate) at 0.012 µg/ml; HSV-1 neutralization in solution [%]	Plaque Reduction Rate Percentage (Average plaque number per plate) at 0.037 µg/ml; HSV-1 neutralization in solution [%]	Plaque Reduction Rate Percentage (Average plaque number per plate) at 0.11 µg/ml; HSV-1 neutralization in solution [%]	Plaque Reduction Rate Percentage (Average plaque number per plate) at 0.33 µg/ml; HSV-1 neutralization in solution [%]	Plaque Reduction Rate Percentage (Average plaque number per plate) at 1 µg/ml; HSV-1 neutralization in solution [%]	Plaque Reduction Rate Percentage (Average plaque number per plate) at 3 µg/ml; HSV-1 neutralization in solution [%]
B5	2	14	57	96	100	100
B4	0	10	57	98	99	98
B6	2	9	40	98	100	100
B7	0	1	42	100	100	100

Molecular target: T1, glycoprotein D of Herpes simplex virus, …
Experiment: cell-based or functional assay
Remark: another data set of the same source

Binder	Plaque Reduction Rate Percentage (Average plaque number per plate) at 0.2 µg/ml; virus prevention assay (cells pre-treated with antibody, washed, then HSV-1) [%]	Plaque Reduction Rate Percentage (Average plaque number per plate) at 0.6 µg/ml; virus prevention assay (cells pre-treated with antibody, washed, then HSV-1) [%]	Plaque Reduction Rate Percentage (Average plaque number per plate) at 1.9 µg/ml; virus prevention assay (cells pre-treated with antibody, washed, then HSV-1) [%]	Plaque Reduction Rate Percentage (Average plaque number per plate) at 5.6 µg/ml; virus prevention assay (cells pre-treated with antibody, washed, then HSV-1) [%]	Plaque Reduction Rate Percentage (Average plaque number per plate) at 16.7 µg/ml; virus prevention assay (cells pre-treated with antibody, washed, then HSV-1) [%]	Plaque Reduction Rate Percentage (Average plaque number per plate) at 50 µg/ml; virus prevention assay (cells pre-treated with antibody, washed, then HSV-1) [%]
B5	0	0	4	44	89	98
B4	0	0	0	19	74	98
B6	0	0	0	16	80	100
B7	0	0	0	6	60	90

Molecular target: T1, glycoprotein D of Herpes simplex virus, …
Experiment: cell-based or functional assay
Remark: another data set of the same source

Binder	Plaque Reduction Rate Percentage (Average plaque number per plate) at 0.008 µg/ml; HSV-1 neutralization in solution [%]	Plaque Reduction Rate Percentage (Average plaque number per plate) at 0.04 µg/ml; HSV-1 neutralization in solution [%]	Plaque Reduction Rate Percentage (Average plaque number per plate) at 0.2 µg/ml; HSV-1 neutralization in solution [%]	Plaque Reduction Rate Percentage (Average plaque number per plate) at 1 µg/ml; HSV-1 neutralization in solution [%]	Plaque Reduction Rate Percentage (Average plaque number per plate) at 5 µg/ml; HSV-1 neutralization in solution [%]
B1	1	1	44	99	99
B2	0	1	36	97	98
B4	0	22	47	99	97
